Consider 31 molecules from publication PMC9911399, “Two distinct binding modes provide the RNA-binding protein RbFox with extraordinary sequence specificity”.

Substitutions are numbered along the chain they refer to; changes in the protein carry UniProt numbers. The list shows a part of the results.

The chains are these.
T1: RBFOX1 RRM RbFoxmut (Fox-RRM*) (Homo sapiens, UniProt Q9NWB1 109-208, R118D;E147R;N151S;E152T)
T1 sequence: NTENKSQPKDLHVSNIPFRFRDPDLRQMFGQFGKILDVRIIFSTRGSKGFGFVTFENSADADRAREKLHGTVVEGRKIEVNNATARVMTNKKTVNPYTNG

B1: UGUUGAG (DNA:RNA)
RNA: GGGAGACCGGAAUUCAGAUUGUCCUGUUGAGUUAAAUCCCGUCGUAGCCACCA
DNA 1: CAATCTGAATTCCGGTCTCCC
DNA 2: TGGTGGCTACGACGGGATT
B2: GCUCGGA (DNA:RNA)
RNA: B1 RNA with U25G, G26C, U28C, A30G, G31A
DNA 1: CAATCTGAATTCCGGTCTCCC
DNA 2: TGGTGGCTACGACGGGATT
B3: UGCGGCG (DNA:RNA)
RNA: B1 RNA with U27C, U28G, A30C
DNA 1: CAATCTGAATTCCGGTCTCCC
DNA 2: TGGTGGCTACGACGGGATT
B4: GAAUAUC (DNA:RNA)
RNA: B1 RNA with U25G, G26A, U27A, G29A, A30U, G31C
DNA 1: CAATCTGAATTCCGGTCTCCC
DNA 2: TGGTGGCTACGACGGGATT
B5: ACCUUUA (DNA:RNA)
RNA: B1 RNA with U25A, G26C, U27C, G29U, A30U, G31A
DNA 1: CAATCTGAATTCCGGTCTCCC
DNA 2: TGGTGGCTACGACGGGATT
B6: AUUAAUU (DNA:RNA)
RNA: B1 RNA with U25A, G26U, U28A, G29A, A30U, G31U
DNA 1: CAATCTGAATTCCGGTCTCCC
DNA 2: TGGTGGCTACGACGGGATT
B7: AGAACAG (DNA:RNA)
RNA: B1 RNA with U25A, U27A, U28A, G29C
DNA 1: CAATCTGAATTCCGGTCTCCC
DNA 2: TGGTGGCTACGACGGGATT
B8: CACGAUG (DNA:RNA)
RNA: B1 RNA with U25C, G26A, U27C, U28G, G29A, A30U
DNA 1: CAATCTGAATTCCGGTCTCCC
DNA 2: TGGTGGCTACGACGGGATT
B9: CCAUCGG (DNA:RNA)
RNA: B1 RNA with U25C, G26C, U27A, G29C, A30G
DNA 1: CAATCTGAATTCCGGTCTCCC
DNA 2: TGGTGGCTACGACGGGATT
B10: AGGCCUA (DNA:RNA)
RNA: B1 RNA with U25A, U27G, U28C, G29C, A30U, G31A
DNA 1: CAATCTGAATTCCGGTCTCCC
DNA 2: TGGTGGCTACGACGGGATT
B11: CCUAAAC (DNA:RNA)
RNA: B1 RNA with U25C, G26C, U28A, G29A, G31C
DNA 1: CAATCTGAATTCCGGTCTCCC
DNA 2: TGGTGGCTACGACGGGATT
B12: UUGAACA (DNA:RNA)
RNA: B1 RNA with G26U, U27G, U28A, G29A, A30C, G31A
DNA 1: CAATCTGAATTCCGGTCTCCC
DNA 2: TGGTGGCTACGACGGGATT
B13: CGAAGAA (DNA:RNA)
RNA: B1 RNA with U25C, U27A, U28A, G31A
DNA 1: CAATCTGAATTCCGGTCTCCC
DNA 2: TGGTGGCTACGACGGGATT
B14: AUUUCCA (DNA:RNA)
RNA: B1 RNA with U25A, G26U, G29C, A30C, G31A
DNA 1: CAATCTGAATTCCGGTCTCCC
DNA 2: TGGTGGCTACGACGGGATT
B15: GGCUAGC (DNA:RNA)
RNA: B1 RNA with U25G, U27C, G29A, A30G, G31C
DNA 1: CAATCTGAATTCCGGTCTCCC
DNA 2: TGGTGGCTACGACGGGATT
B16: ACACUAA (DNA:RNA)
RNA: B1 RNA with U25A, G26C, U27A, U28C, G29U, G31A
DNA 1: CAATCTGAATTCCGGTCTCCC
DNA 2: TGGTGGCTACGACGGGATT
B17: GGGGUGC (DNA:RNA)
RNA: B1 RNA with U25G, U27G, U28G, G29U, A30G, G31C
DNA 1: CAATCTGAATTCCGGTCTCCC
DNA 2: TGGTGGCTACGACGGGATT
B18: GGCUUAA (DNA:RNA)
RNA: B1 RNA with U25G, U27C, G29U, G31A
DNA 1: CAATCTGAATTCCGGTCTCCC
DNA 2: TGGTGGCTACGACGGGATT
B19: UCAUAAA (DNA:RNA)
RNA: B1 RNA with G26C, U27A, G29A, G31A
DNA 1: CAATCTGAATTCCGGTCTCCC
DNA 2: TGGTGGCTACGACGGGATT
B20: AUAACGG (DNA:RNA)
RNA: B1 RNA with U25A, G26U, U27A, U28A, G29C, A30G
DNA 1: CAATCTGAATTCCGGTCTCCC
DNA 2: TGGTGGCTACGACGGGATT
B21: AUUAAAC (DNA:RNA)
RNA: B1 RNA with U25A, G26U, U28A, G29A, G31C
DNA 1: CAATCTGAATTCCGGTCTCCC
DNA 2: TGGTGGCTACGACGGGATT
B22: CUGACAC (DNA:RNA)
RNA: B1 RNA with U25C, G26U, U27G, U28A, G29C, G31C
DNA 1: CAATCTGAATTCCGGTCTCCC
DNA 2: TGGTGGCTACGACGGGATT
B23: GUUAACG (DNA:RNA)
RNA: B1 RNA with U25G, G26U, U28A, G29A, A30C
DNA 1: CAATCTGAATTCCGGTCTCCC
DNA 2: TGGTGGCTACGACGGGATT
B24: AUCCGGU (DNA:RNA)
RNA: B1 RNA with U25A, G26U, U27C, U28C, A30G, G31U
DNA 1: CAATCTGAATTCCGGTCTCCC
DNA 2: TGGTGGCTACGACGGGATT
B25: AGAGAAC (DNA:RNA)
RNA: B1 RNA with U25A, U27A, U28G, G29A, G31C
DNA 1: CAATCTGAATTCCGGTCTCCC
DNA 2: TGGTGGCTACGACGGGATT
B26: UGCCCGA (DNA:RNA)
RNA: B1 RNA with U27C, U28C, G29C, A30G, G31A
DNA 1: CAATCTGAATTCCGGTCTCCC
DNA 2: TGGTGGCTACGACGGGATT
B27: UUGUGUU (DNA:RNA)
RNA: B1 RNA with G26U, U27G, A30U, G31U
DNA 1: CAATCTGAATTCCGGTCTCCC
DNA 2: TGGTGGCTACGACGGGATT
B28: UUAUGUC (DNA:RNA)
RNA: B1 RNA with G26U, U27A, A30U, G31C
DNA 1: CAATCTGAATTCCGGTCTCCC
DNA 2: TGGTGGCTACGACGGGATT
B29: CCGUGUU (DNA:RNA)
RNA: B1 RNA with U25C, G26C, U27G, A30U, G31U
DNA 1: CAATCTGAATTCCGGTCTCCC
DNA 2: TGGTGGCTACGACGGGATT
B30: GCGAAUA (DNA:RNA)
RNA: GGGAGACCGGAAUUCAGAUUGUCCGCGAAUAUUAAAUCCCGUCGUAGCCACCA
DNA 1: CAATCTGAATTCCGGTCTCCC
DNA 2: TGGTGGCTACGACGGGATT
B31: ACCCGGU (DNA:RNA)
RNA: B30 RNA with G25A, G27C, A28C, A29G, U30G, A31U
DNA 1: CAATCTGAATTCCGGTCTCCC
DNA 2: TGGTGGCTACGACGGGATT

The target in this test is T1, RBFOX1 RRM RbFoxmut (Fox-RRM*). Kind of test: EMSA; HiTS-Eq, 1 nM pool, 10 min; buffer printed only for the single-RNA assays: 10 mM Tris pH 7.5, 150 mM NaCl, 3.4 mM EDTA, 0.001% NP-40, 30 C. As to conditions: tags: His6 N-terminal (pET28a); label: 5' 32P. The method in brief:
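A pool of RNA with 7 randomized nucleotides, 5′-radiolabelled and with DNA-annealed flanks, was equilibrated at 1 nM for 10 min in 50 µL with purified RbFox RRM, wild type or mutant, across increasing protein concentrations. Free RNA was separated by 8% native PAGE, excised, reverse-transcribed, barcoded by PCR and sequenced. Relative association constants were obtained from read-count changes of each RNA species versus the control reaction and normalised to the cognate motif.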
Consider B1, for which the binding signal was 0.143 KA relative to UGCAUGU. Consider B2, for which the binding signal is 0.0688 KA relative to UGCAUGU. Regarding B3, the binding signal is 0.148 KA relative to UGCAUGU. Next, B4: 0.0888 KA relative to UGCAUGU. On to B5, for which the binding signal was 0.119 KA relative to UGCAUGU. Next, B6: 0.0885 KA relative to UGCAUGU; B7: 0.0792 KA relative to UGCAUGU. For the molecule B8, the binding signal is 0.103 KA relative to UGCAUGU. Consider B9, for which the binding signal was 0.1 KA relative to UGCAUGU. For the molecule B10, the binding signal is 0.0817 KA relative to UGCAUGU.

Take B11: the binding signal was 0.0722 KA relative to UGCAUGU. Next, B12: 0.0696 KA relative to UGCAUGU; B13: 0.117 KA relative to UGCAUGU. Next, B14: 0.0958 KA relative to UGCAUGU; B15: 0.0943 KA relative to UGCAUGU.

B16: the binding signal was 0.112 KA relative to UGCAUGU. Next, B17: 0.189 KA relative to UGCAUGU; B18: 0.0673 KA relative to UGCAUGU; B19: 0.108 KA relative to UGCAUGU. Next, B20: 0.065 KA relative to UGCAUGU; B21: 0.0877 KA relative to UGCAUGU; B22: 0.0613 KA relative to UGCAUGU. Next, B23: 0.111 KA relative to UGCAUGU; B24: 0.0795 KA relative to UGCAUGU; B25: 0.103 KA relative to UGCAUGU. For the molecule B26, the binding signal was 0.129 KA relative to UGCAUGU. Next, B27: 0.162 KA relative to UGCAUGU. As for B28, the binding signal is 0.185 KA relative to UGCAUGU. On to B29, for which the binding signal is 0.0949 KA relative to UGCAUGU. Next, B30: 0.137 KA relative to UGCAUGU; B31: 0.0772 KA relative to UGCAUGU.
